# Source: PubChem BioAssay AID995 (National Center for Advancing Translational Sciences (NCATS), 2007)
# Among all 72,000 compounds or so, about 710 (0.99%) were called active. The inconclusive results got no clear call from the source; some entries with a clear call stand among them for comparison. The call rests on the fitted dose curve; in most records, active means well fitted inhibition curve with a large enough effect; inconclusive means small, poorly fitted or top-dose-only effect; inactive means no such curve, though single readings can be large or run the other way. Potencies of inconclusive entries are left out as doubtful fits.
# Assay: qHTS Assay for Inhibitors of the ERK Signaling Pathway using a Homogeneous Screening Assay; further: nearly all actives have a fitted effect of over 55% in size
# Conditions: HEK293-V1b, vasopressin-stimulated pERK AlphaScreen; activity, negative = inhibition: at 57.5 µM (top of the series) unless noted
# Outline: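 HEK293 cells stably expressing V1b receptor, seeded overnight in 1% FBS, were treated with compounds for 30 min at 37C, then stimulated 5 min with 25 nM vasopressin; phospho-ERK read by AlphaScreen SureFire after lysis.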
# On the % scale 0 is the no-effect control and ±100 the full control effect; potency means the concentration at half of the fitted maximal effect; tags describe the fitted curve by direction and shape.
Compound,Potency,"activity, negative = inhibition"
COc1cc2c(cc1OC)-c1cc(NC3CCCCC3)nc(=O)n1CC2,"inconclusive [inhibitor, partial curve]",
C[C@H](N=C(NC#N)Nc1ccncc1)C(C)(C)C,"inconclusive [inhibitor, partial curve]",
COc1ccc(NC(=O)c2cc(-c3ccc(C)o3)nc3ccccc23)cc1OC,inactive,
Cc1ccc(C(c2nnnn2Cc2cccs2)N2CCN(Cc3ccc4c(c3)OCO4)CC2)cc1 (centres undefined),"inconclusive [inhibitor, single point]",
Cc1ccc(N2C(=O)c3oc4ccccc4c(=O)c3C2c2cccc(O)c2)nc1 (centres undefined),"inconclusive [inhibitor, partial curve]",
Cc1cccc(C)c1OCC(=O)Nn1c(C)nc2ccccc2c1=O,"inconclusive [inhibitor, partial curve]",
O=C1CC(c2ccc(O)cc2)Oc2ccccc21 (centres undefined),"inconclusive [inhibitor, partial curve]",
COCC(C)n1c(C)cc(C(=O)COC(=O)c2c(NC(C)=O)sc(C)c2C)c1C (centres undefined),inactive,
CC(C)CNc1nc2ncnc(N)c2[nH]1,,inactive: -13.9% [at 11.5 µM]
CN(C)C(=O)c1ccc(-c2nccc(-n3ccnc3)n2)cc1,"inconclusive [inhibitor, partial curve]",
Cc1ccc(NCc2nnc(SCCN3CCCCC3)n2CC2CCCO2)cc1Cl (centres undefined),"inconclusive [inhibitor, partial curve]",
COc1ccc2[nH]cc(CCNc3nc(-c4ccc(N(C)C)cc4)nc4ccccc34)c2c1,"inconclusive [inhibitor, partial curve]",
COc1ccc(NC(=O)N(CCO)Cc2cc3c(C)cc(C)cc3[nH]c2=O)cc1,"inconclusive [inhibitor, partial curve]",
N#C[C@@H](Cc1ccc(O)c(O)c1)C(=O)N1CCc2ccccc21,"inconclusive [inhibitor, single point]",
Cn1c(=O)c(C(=O)c2ccccc2)nc2ccccc21,inactive,
CCOC(=O)c1c(C)[nH]c(C(=O)COC(=O)c2ccccc2NC(=O)c2ccco2)c1C,inactive,
COc1ccc2nc(C)cc(SCC(=O)O)c2c1,inactive,
CSCCC(NC(=O)c1cncc(Br)c1)C(=O)O (centres undefined),"inconclusive [inhibitor, single point]",
COc1ccc(-c2nc(N3CCOCC3)nc3n[nH]c(N)c23)cc1,"inconclusive [inhibitor, full curve]",
COc1nccc(Nc2ccccc2)c1C#N,inactive,
O=C(COc1ccc(S(=O)(=O)N2CCc3ccccc32)cc1Cl)NCc1ccccn1,"inconclusive [inhibitor, single point]",
CCN(CC)C(=O)c1cc(-c2ccc(Br)cc2)on1,"inconclusive [inhibitor, partial curve, poor fit]",
O=C(Nc1nc(-c2cccnc2)cs1)c1ccc(S(=O)(=O)N2CCOCC2)cc1,inactive,
CC(=O)Oc1ccc(N(C(C)=O)S(=O)(=O)c2cccs2)cc1,inactive,
COc1ccccc1-c1nnc2sc(COc3ccc(Cl)cc3)nn12,"inconclusive [inhibitor, single point]",

Compound,Potency,"activity, negative = inhibition"
O=C(O)c1cc(=O)c2ccc(Cl)cc2[nH]1,"inconclusive [inhibitor, full curve, poor fit]",
S=C(Nc1ccccc1)Nc1ccccc1C#Cc1ccccc1,inactive,
O=C(O)CN(CC(=O)O)Cc1cc2c(-c3ccccc3C(=O)O)c3cc(CN(CC(=O)O)CC(=O)O)c(=O)cc-3oc2cc1O,inactive,
O=C(COc1ccc(S(=O)(=O)N2CCCC2)cc1Cl)NCc1ccc2c(c1)OCO2,"inconclusive [inhibitor, partial curve]",
O=C(Nc1cccc(F)c1)N1CCCC2(CCNCC2)C1,inactive,
O=C(NCc1ccccc1F)C1CCN(C(=O)NCc2ccccc2)CC1,inactive,
COc1ccc(C2CC(c3ccc(Cl)cc3)n3nc(N)nc3N2)cc1 (centres undefined),"inconclusive [inhibitor, partial curve]",
CCOC(=O)c1cnc2ccc(C(=O)OC)cc2c1NCCN1CCOCC1,"inconclusive [inhibitor, single point]",
NC(=O)C/C=C\CC(N)=O,,inactive: 1.15% [at 11.5 µM]
Nc1nonc1-c1noc(CCCOc2ccc(Cl)cc2Cl)n1,inactive,
COc1ccc(-n2c(C)cc(C(=O)Cn3c(NCCO)nc4ccccc43)c2C)cc1,active: 10 µM,
O=C(O)[C@H](CCc1ccccc1)N1C(=O)c2ccccc2C1=O,,inactive: 22.3% [at 11.5 µM]
Cc1ccc(-c2nnc(N3CCOCC3)c3ccccc23)cc1S(=O)(=O)NCC1CCCO1 (centres undefined),inactive,
Cc1ccnc(NC(=O)Nc2ccc3c(c2)N(C)C(=O)CS3)c1,"inconclusive [inhibitor, partial curve]",
Clc1ccc2nc(CN3CCCc4ccccc43)cn2c1,"inconclusive [inhibitor, partial curve]",
COc1ccccc1CNc1ncnc2c1nnn2Cc1ccccc1,inactive,
CC1CCCCN1S(=O)(=O)c1ccc(NC(=O)c2cccs2)cc1 (centres undefined),"inconclusive [inhibitor, partial curve]",
Cc1cc(=O)n2nc(N3CCCC(C(=O)NCCc4ccccc4)C3)sc2n1 (centres undefined),"inconclusive [inhibitor, full curve, poor fit]",
O=C(O)CNC(=O)c1ccc([N+](=O)[O-])cc1,inactive,
COc1ccc(-c2oc3ccccc3c(=O)c2O)cc1,inactive,
Cc1nc(NCc2ccco2)c2c3c(sc2n1)CCC3,"inconclusive [inhibitor, partial curve]",
COc1cc2[nH]c3c(N4CCN(c5ccccn5)CC4)ncnc3c2cc1OC,active: 25.1 µM,
CCOC(=O)N1CCN(CC(=O)Nc2cc(OCC)ccc2OCC)CC1,"inconclusive [inhibitor, single point]",
O=C(Nc1cccc(N2CCCC2)c1)c1cccs1,"inconclusive [inhibitor, full curve]",
CCN(CC)S(=O)(=O)c1ccc2oc(C(=O)NCc3ccc(F)cc3)c(C)c2c1,"inconclusive [inhibitor, full curve, poor fit]",

Compound,Potency,"activity, negative = inhibition"
O=C(CSc1nnc(-c2cccnc2)o1)Oc1ccccc1,"inconclusive [inhibitor, single point]",
Cc1cc(NC(=O)CCCS(=O)(=O)c2nc(-c3cccs3)cc(C(F)(F)F)n2)no1,inactive,
CCOC(=O)N1CCN(CC(=O)Nc2c(C(=O)OC)[nH]c3ccc(Cl)cc23)CC1,"inconclusive [inhibitor, partial curve]",
c1ccc(-n2ncc3c2ncn2nnnc32)cc1,inactive,
O=C(CCn1nc(-c2ccccc2)c2ccccc2c1=O)N1CCN(c2ccccc2)CC1,"inconclusive [inhibitor, partial curve]",
Cc1nc2cc(NC(=O)NCc3ccco3)ccc2o1,"inconclusive [inhibitor, single point]",
Fc1ccc2[nH]c3c(N4CCSCC4)ncnc3c2c1,active: 12.6 µM,
Cc1cc(C)cc(N(C(=O)Cn2nnc3ccccc32)C(C(=O)NCc2ccco2)c2ccncc2)c1 (centres undefined),"inconclusive [inhibitor, partial curve, poor fit]",
CCn1c(=O)c(C(=O)NCc2cccnc2)c(O)c2ccccc21,inactive,
CCN1CCN(C(=O)c2ccc3c(=O)n(Cc4ccccc4OC)c(=S)[nH]c3c2)CC1,"inconclusive [inhibitor, single point]",
COc1ccccc1NC(=O)CCc1c(C)[nH]c(=O)c(C#N)c1C,inactive,
C=CCSc1nc2c(N)ncnc2n1[C@@H]1O[C@H](CO)[C@@H](O)[C@@H]1O,,inactive: 16.7% [at 11.5 µM]
O=C(c1ccco1)N1CCN(C(=O)C2CC(c3ccc(Cl)c(Cl)c3)=NO2)CC1 (centres undefined),active: 20 µM,
O=C(c1cccc(F)c1)N1CCC2(CCCN(C(c3ccccc3)c3ccccc3)C2)CC1,inactive,
CCOc1ccc(OCc2ccc(C(=O)OCc3ccccn3)o2)cc1,"inconclusive [inhibitor, partial curve, poor fit]",
COc1ccc(OC)c(S(=O)(=O)N(C)CC(=O)N2CCN(c3cccc(Cl)c3)CC2)c1,"inconclusive [inhibitor, partial curve]",
C[C@H](N)CCCC(C)(C)O,inactive,
O=C(Nc1cccc(-c2nnc(-c3ccccc3)o2)c1)c1ccc(Br)o1,"inconclusive [inhibitor, partial curve]",
CO[C@H]1COC(=O)[C@H](C)COC(=O)[C@H](C)NC(=O)C/C=C\[C@H]1C,,inactive: 1.51% [at 11.5 µM]
C=CCSC1=C(C#N)C(c2ccccc2C)CC(=O)N1 (centres undefined),"inconclusive [inhibitor, partial curve]",
N#Cc1nc(-c2ccc(Cl)cc2)oc1NCc1cccc2c1OCO2,"inconclusive [inhibitor, partial curve]",
O=C1c2ccccc2C(=O)N1CC#CCN1CCN(C2CCCCC2)CC1,"inconclusive [inhibitor, partial curve]",
CC(=O)c1cccc(NC(=O)C2CCN(S(=O)(=O)c3c(C)n[nH]c3C)CC2)c1,"inconclusive [inhibitor, partial curve]",
O=C(N/N=C1/C[C@@H](O)[C@@H](O)[C@@H]2[C@H]3C(=O)N(c4ccc(F)cc4F)C(=O)[C@@H]3CC[C@@H]12)OCc1ccccc1,,inactive: 4.44% [at 11.5 µM]
